Results reported in ChEMBL document CHEMBL4888484, “Replenishing the malaria drug discovery pipeline: Screening and hit evaluation of the MMV Hit Generation Library 1 (HGL1) against asexual blood stage Plasmodium falciparum ,using a nano luciferase reporter read-out” (2022).
Hit rate of the full screen: of about 150,000 compounds, about 540 (0.36%) showed an effect of 50% or more. This is one part of the list.

System: Plasmodium falciparum
Assay: Primary screen in NF54 nanoGlo assay, in single point, at 2uM, 72h; a lower Z score goes with more inhibition
Assay type: functional, Erythrocyte
Conditions: timepoint 72 hour

Compound	% Inhibition [%]	Z score
O=C(Nc1ccccc1)N1CC(Cn2ccnn2)C1	-4	0.7
Nc1n[nH]c(CNC(=O)Nc2ccccc2C(F)(F)F)n1	-3	0.53
CN1CC(=O)N(CC(=O)N2CCCc3ccccc32)C1=O	-4	0.63
Cc1nccc(N2CC[C@@H](OC(C)(C)C)C2)n1	-7	0.84
COCC1(NC(=O)c2ccc(N3CCC3)nc2)CCCCC1	15	-2.02
Cc1cc(=O)[nH]c(-n2[nH]c3c(c2=O)CCCC3)n1	-3	0.53
CC(C)(C#N)CNc1ncccc1C#N	-1	0.08
O=C(Nc1noc(-c2ccccc2)c1-c1ccc(Cl)cc1)c1ccccc1	6	-1
COc1ccc(C(=O)N[C@H]2[C@H](O)[C@H](O)C[C@@H]2c2ccc(N3CCOCC3)nc2)cc1	-1	0.15
CN(CC(=O)N1CCC1)c1ccc(-c2nccs2)cc1	-4	0.8
CCC(C)(C)c1cc(-c2cnn(C)c2C)c(C#N)c(N)n1	-9	1.34
Cc1cc(N(C)C)nc(N2CCN(C(=O)Nc3ccc4c(c3)OCCO4)CC2)n1	-13	1.18
Cc1nc(C(C)C)ncc1C(=O)N1CC[C@](C)(O)[C@H](CC(C)C)C1	-2	0.42
C[C@H]1CCCN(C(=O)C2CCOCC2)CC1	-3	0.43
Cc1noc(NC(=O)CCn2nnnc2C)c1-c1ccccc1	-10	1.8
CC(C)OCc1nc(-c2c[nH]c3ncccc23)cs1	10	-0.99
Clc1cccc(Cl)c1CNc1nc(-c2ccco2)n[nH]1	-17	1.94
O=c1[nH]ccc2ccn(Cc3ccccc3F)c12	3	-0.39
CCc1nc(-c2cc(S(=O)(=O)NCC(=O)NC3CCCCC3)c(C)s2)no1	3	-0.3
N#Cc1ccc(N2CCCN(C(=O)c3ccc(F)cc3F)CC2)cn1	-6	0.71
COc1cccc2c1N(CC(=O)NCC(F)(F)F)CC[C@@H]2C	39	-5.67
Cc1n[nH]cc1CN1CCC[C@](C)(F)C1	0	0.06

Compound	% Inhibition [%]	Z score
Cc1cnc(CN2CC3(CCC2=O)CCN(c2ncncc2C(C)C)CC3)cn1	-12	1.48
CCCO/C(=N/C(=O)c1cccc(OC)c1)NCc1ccccc1	2	-0.28
Cc1ccnc(NS(=O)(=O)c2ccc(NC(=O)c3cc(-c4ccccc4)on3)cc2)n1	4	-0.52
CCn1c(=O)c(CCC(=O)Nc2cc(C)ccc2OC)nc2c(C)nn(-c3ccccc3)c21	2	-0.33
COCCNC(=O)NCc1ccccn1	-9	0.99
CC(C)C[C@H](C)N(C)C(=O)Cc1cccc(O)c1	8	-1.03
Cn1cc(NC(=O)Cn2ccc3cc(-c4ccc5c(c4)OCO5)ccc32)nn1	-3	0.26
CC(=O)N(Cc1ccccc1OS(C)(=O)=O)CC1CC1	1	-0.21
O=C(Nc1ccc2cccc(Cl)c2n1)c1c(C(F)(F)F)nc2n1CCCC2	-18	2.86
COCCC1(CNC(=O)NCc2ccccn2)CCC1	-2	0.37
CCN1CC[C@H](Nc2nc3cc(C(F)(F)F)ccc3s2)C1=O	-7	0.89
CN(Cc1ccccc1)C(=O)CC[C@@H]1NC(=O)c2ccccc2N=C1O	4	-0.5
COc1ncncc1NC(=O)NCC1CCOCC1	-4	0.45
Cc1ccc2ncn(CC(=O)N3CCN(C4CC4)C[C@H](C)C3)c2c1	2	-0.27
O=C1NC(=O)C2(CCN(S(=O)(=O)Cc3ccccc3)CC2)N1	-3	0.63
O=C(NCCc1nnc[nH]1)c1cc(Cl)cc(Br)c1O	0	0.06
Cc1ccc(CNC(=O)[C@H]2CCc3ncncc3C2)n1C	-3	0.61
CCc1noc(C)c1C(=O)NC1CCN(CC)CC1	-14	1.91
CCO[C@@H](C)c1nccn1Cc1nnc(C(C)C)o1	-3	0.47
Cc1cnc(NC(=O)N2CCOC3(CCOC3C)C2)cn1 (stereo unspecified)	-7	1.07
COc1ccc(N2C(=O)C3C4CC5C(OC2(C(C)C)C53)C4O)cc1 (stereo unspecified)	-6	0.92
